Laboratory results reported in PubChem BioAssay AID434955 (Southern Research Specialized Biocontainment Screening …, 2010).
This is one part of the list. Further columns of the screen follow, without active or inactive calls. Compounds called inactive in the main read-out are mostly missing here.

Assay: beta-lactam sensitization of Mtb H37Rv, H37Rv (AID 434955);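 note: growth measured after seven days incubation then overnight dye step; 0% = bacteria only wells and 100% = bacteria with antibiotic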
Conditions: M. tuberculosis H37Rv growth with meropenem, percent inhibition; measured here: primary screen without meropenem; at 25 µM

With Cn1c(CNC(=O)c2ccco2)nnc1SCC(=O)c1ccc(F)cc1 as the molecule, how does the inhibition read?
The inhibition was -2.19%.

With CCC1C(C#N)=C(N)OC2=C1C(=O)CC(C)(C)C2 (centres undefined) as the molecule, how does the inhibition read?
Its inhibition is 2.52%.

Which inhibition does the source give for C=CCn1c(=O)[nH]c2cc(C(=O)N3CCN(c4cc(C)ccc4C)CC3)ccc2c1=O here?
Its inhibition is -6.01%.

Which inhibition does the source give for CC(=O)c1ccccc1NC(=O)COC(=O)/C=C/c1ccc(C)o1 here?
Its inhibition is 26.6%.

For O=C(NC1CCCc2c1cnn2-c1ccc(F)cc1F)c1ccccc1N1CCOCC1 (centres undefined), which inhibition is on record?
The inhibition was -4.15%.

Which inhibition does the source give for C=CCn1c(C)c(C(C)=O)c(SC)nc1=S here?
Its inhibition is 7.33%.

For O=C(CNC(=O)c1ccccc1)NCC(=O)OCC(=O)c1ccc(F)cc1, which inhibition is on record?
The inhibition was -2.5%.

With Cc1ccc(SCC(=O)O/N=C(\N)c2cccnc2)cc1 as the molecule, how does the inhibition read?
Its inhibition is -1.64%.

For C=CCNC1=C(Cl)C(=O)N(c2cccc(Cl)c2Cl)C1=O, which inhibition is on record?
Its inhibition is 10.1%.

With C=CCSc1nc(-c2ccccc2)c(C#N)c(=O)[nH]1 as the molecule, how does the inhibition read?
Its inhibition is -2.05%.

Which inhibition does the source give for Cc1ccc(C2(C)NC(=O)N(CC(=O)Nc3ccc4c(c3)OCO4)C2=O)cc1 (centres undefined) here?
The inhibition was -4.8%.

With CC1CCc2nn(CC(=O)NCc3ccc4c(c3)OCO4)cc2C1 (centres undefined) as the molecule, how does the inhibition read?
The inhibition was -1.77%.

For O=C(C1=C[C@H](c2ccc(Br)cc2)C[C@H](OCc2ccc(CO)cc2)O1)N1CCN(Cc2ccc3c(c2)OCO3)CC1, which inhibition is on record?
The inhibition was 40.8%.

For CCOc1cc(N2CCOCC2)c(OCC)cc1NC(=O)COc1cccc(CC)c1, which inhibition is on record?
The inhibition was 79.3%.

With O=C(COc1ccccc1)NNC(=O)c1cc2ccccc2oc1=O as the molecule, how does the inhibition read?
The inhibition was -4.55%.

Which inhibition does the source give for COc1cccc(-c2nnn(CC(=O)Nc3cc(OC)c(NC(=O)c4ccco4)cc3OC)n2)c1 here?
Its inhibition is 42.2%.

With Cc1cc(C(=O)N2CCCC(N3CCN(c4cccc(C(F)(F)F)c4)CC3)C2)c(C)o1 (centres undefined) as the molecule, how does the inhibition read?
The inhibition was -7.78%.

With N=c1n(CC(=O)c2ccc([N+](=O)[O-])cc2)c2ccccc2n1Cc1ccccc1 as the molecule, how does the inhibition read?
The inhibition was -0.4%.

Which inhibition does the source give for O=C(c1cccc(-c2ccccc2F)c1)N1CC[C@@H](N2CCC(O)CC2)[C@H](O)C1 here?
Its inhibition is -1.12%.

For COc1ccccc1NC(=O)CSc1nc2nccnc2c(=O)n1Cc1cccs1, which inhibition is on record?
Its inhibition is -1.51%.

Which inhibition does the source give for COc1ccccc1C1C(C(=O)NCc2ccccc2)=C(C)Nc2ncnn21 (centres undefined) here?
The inhibition was -5.08%.

With CCCCCCc1ccc(OCC(=O)O)cc1OCC(=O)O as the molecule, how does the inhibition read?
The inhibition was -13.1%.

Which inhibition does the source give for O=C(CSc1nnc(CNc2ccc(F)cc2)o1)N1c2ccccc2Sc2ccccc21 here?
Its inhibition is 39.9%.

Which inhibition does the source give for O=C(CSc1nnc(-c2cnccn2)n1Cc1ccco1)Nc1ccc(Br)cc1 here?
The inhibition was 36%.

With O=C(CSc1nnc2c(n1)[nH]c1ccccc12)Nc1ccc2c(c1)OCO2 as the molecule, how does the inhibition read?
Its inhibition is 0.35%.

Which inhibition does the source give for Cc1cc(C(=O)CSc2nnc(N)s2)c(C)n1Cc1cccs1 here?
Its inhibition is 1.63%.

With CC(C)CNc1oc(-c2ccc(F)cc2)nc1C#N as the molecule, how does the inhibition read?
The inhibition was -4.1%.

For O=C(Nc1c2c(nc3ccccc13)CCCC2)c1ccccc1F, which inhibition is on record?
Its inhibition is -2.4%.

For CC1CCCN(C(=O)C2CCN(c3nc(-c4ccccc4)nc4c3CCC4)CC2)C1 (centres undefined), which inhibition is on record?
The inhibition was 8.84%.
